# Source: article PMC5148612
# Results are given in words; binding and its absence hold for the method and conditions named. For some assays here: Binding seen in cells or lysates may run through a third protein. Some entries that bind do so weakly or less than the wild type. For some assays here: Where a sequence is shown, tags or fusion partners need not be part of it.
# T1: Atg5-TAP (S. cerevisiae) (UniProt Q12380)
# T1 sequence: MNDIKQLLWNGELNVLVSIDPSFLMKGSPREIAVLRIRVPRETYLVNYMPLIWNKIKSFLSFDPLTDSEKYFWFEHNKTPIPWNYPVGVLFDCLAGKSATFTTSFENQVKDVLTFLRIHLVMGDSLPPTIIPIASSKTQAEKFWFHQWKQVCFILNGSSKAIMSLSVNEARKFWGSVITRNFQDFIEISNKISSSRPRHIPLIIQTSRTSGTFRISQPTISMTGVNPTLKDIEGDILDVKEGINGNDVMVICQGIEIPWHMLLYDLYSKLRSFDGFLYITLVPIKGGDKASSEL
# T2: 6xHis-TEV-Atg5-mCherry (S. cerevisiae) (UniProt Q12380)
# T2 sequence: T1 sequence
# T3: Atg5 (S. cerevisiae) (UniProt Q12380)
# T3 sequence: T1 sequence
# T4: GST-Atg19 (S. cerevisiae) (UniProt P35193)
# T4 sequence: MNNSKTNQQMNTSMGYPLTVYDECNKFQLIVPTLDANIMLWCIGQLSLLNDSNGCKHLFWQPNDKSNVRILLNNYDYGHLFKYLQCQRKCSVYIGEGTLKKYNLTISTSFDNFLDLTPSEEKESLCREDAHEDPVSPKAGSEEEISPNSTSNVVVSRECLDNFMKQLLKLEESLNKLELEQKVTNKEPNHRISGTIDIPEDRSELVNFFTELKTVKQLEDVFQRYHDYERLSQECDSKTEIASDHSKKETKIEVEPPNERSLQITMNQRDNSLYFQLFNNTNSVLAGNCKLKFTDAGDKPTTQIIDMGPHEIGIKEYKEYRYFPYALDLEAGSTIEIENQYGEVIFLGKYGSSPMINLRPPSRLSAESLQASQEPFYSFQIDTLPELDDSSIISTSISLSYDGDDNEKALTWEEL
# T5: GST-Atg19(365–415) (S. cerevisiae) (UniProt P35193)
# T5 sequence: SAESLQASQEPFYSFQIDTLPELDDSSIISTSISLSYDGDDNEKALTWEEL
# T6: GST-Atg19(365–407) F376A, F379A, L384A, L387A (S. cerevisiae) (UniProt P35193)
# T6 sequence: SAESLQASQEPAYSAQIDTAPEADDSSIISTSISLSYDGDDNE
# B1: 6xmyc-Atg19 (protein, UniProt P35193 1-415)
# chain: T4 sequence
# B2: Atg16 (1–46) (domain or fragment, UniProt Q03818 1-46)
# chain: MGNFIITERKKAKEERSNPQTDSMDDLLIRRLTDRNDKEAHLNELF
# B3: Atg16-meGFP (protein, UniProt Q03818 1-150)
# chain: MGNFIITERKKAKEERSNPQTDSMDDLLIRRLTDRNDKEAHLNELFQDNSGAIGGNIVSHDDALLNTLAILQKELKSKEQEIRRLKEVIALKNKNTERLNDELISGTIENNVLQQKLSDLKKEHSQLVARWLKKTEKETEAMNSEIDGTK
# B4: Atg12~Atg5-Atg16-mCherry complex (complex, UniProt P38316 1-186; Q12380 1-294; Q03818 1-150)
# chain 1: MSRILESENETESDESSIISTNNGTAMERSRNNQELRSSPHTVQNRLELFSRRLSQLGLASDISVDQQVEDSSSGTYEQEETIKTNAQTSKQKSHKDEKNIQKIQIKFQPIGSIGQLKPSVCKISMSQSFAMVILFLKRRLKMDHVYCYINNSFAPSPQQNIGELWMQFKTNDELIVSYCASVAFG
# chain 2: T1 sequence
# chain 3: B3 chain
# modifications: conjugated to Atg5 (Atg12~Atg5 protein conjugate) | conjugated to Atg12
# B5: Atg5-mCherry-Atg16 (1–46) complex (complex, UniProt Q12380 1-294; Q03818 1-46)
# chain 1: T1 sequence
# chain 2: B2 chain
# B6: Atg5-Atg16 (1–46) (complex, UniProt Q12380 1-294; Q03818 1-46)
# chain 1: T1 sequence
# chain 2: B2 chain
# Columns and labels:
# [1] = biological target: T1, Atg5-TAP (S. cerevisiae); test: co-IP; lysates of atg16∆ atg19∆ S. cerevisiae with integrated Atg5-TAP or Atg5 K57E,N84E-TAP, plasmid 6xmyc-Atg19 and plasmid Atg16 wild type; IgG beads (Figure 5F)
# [2] = biological target: T1, Atg5-TAP (S. cerevisiae); test: co-IP; lysates of atg8∆ atg19∆ S. cerevisiae with integrated Atg5-TAP and plasmid 6xmyc-Atg19; Atg5-TAP precipitated on IgG-coupled magnetic Epoxy beads, 1 hr at 4°C (Figures 1D, 3D)
# [3] = biological target: T2, 6xHis-TEV-Atg5-mCherry (S. cerevisiae); test: co-purification (Ni-NTA, size exclusion chromatography); 6xHis-TEV-Atg5-mCherry and Atg16 (1–46) co-expressed in E. coli; Ni-NTA, then Superdex 200 in 25 mM HEPES pH 7.5, 150 mM NaCl, 1 mM DTT
# [4] = biological target: T3, Atg5 (S. cerevisiae); test: co-purification (glutathione beads, thrombin, size exclusion chromatography); GST-Atg5 and Atg16 (1–46) co-expressed in E. coli; lysate on glutathione beads, washed five times with 50 mM HEPES, 300 mM NaCl, 1 mM DTT, cleaved with thrombin, Superdex 200
# [5] = biological target: T4, GST-Atg19 (S. cerevisiae); test: pull-down; GST-fused bait 5 µM and GST-free prey 5 µM with glutathione Sepharose 4B, 1 hr at 4°C; washed with 25 mM HEPES pH 7.5, 150 mM NaCl, 1 mM DTT and 0.1% TritonX100; Western blot (Figures 1A, 1C, 2A, 2C); both purified
# [6] = biological target: T5, GST-Atg19(365–415) (S. cerevisiae); test: microscopy-based protein-protein interaction assay on beads; glutathione beads coated with GST baits at 20 µM, Atg12~Atg5-Atg16-mCherry 5 µM, 25 mM HEPES pH 7.5, 150 mM NaCl, 1 mM DTT, imaged at equilibrium by spinning disc microscopy (Figures 1B, 2F, 2G); both purified
# [7] = biological target: T6, GST-Atg19(365–407) F376A, F379A, L384A, L387A (S. cerevisiae); test: microscopy-based protein-protein interaction assay on beads; glutathione beads coated with GST-fused proteins at 30 µM, Atg5-mCherry-Atg16 (1–46) 18 µM, equilibrium (Figure 3B, C); both purified
# [8] = biological target: T6, GST-Atg19(365–407) F376A, F379A, L384A, L387A (S. cerevisiae); test: pull-down; GST-fused bait 20 µM and GST-free prey 5 µM with glutathione Sepharose 4B, 1 hr at 4°C; washed with 25 mM HEPES pH 7.5, 150 mM NaCl, 1 mM DTT; anti-Atg5 Western blot (Figure 2E, Figure 3—figure supplement 1, Figure 4C); both purified
binder,measurement,setting,value
B1,binding,[1],binds
same,binding,[2],binds
B2,binding,[3],binds
same,binding,[4],binds
B3,binding,[5],no binding (tested: 5 µM)
B4,binding,[6],no binding (tested: 5 µM)
B5,binding,[7],no binding (tested: 18 µM)
B6,binding,[8],no binding (tested: 5 µM)
